Data from patent US20120142701A1 (priority 2010, published 2012).

Biological target: Influenza Nucleoprotein (Influenza A virus, UniProt P03466)
Conditions: pH 7

nucleozin
aggregation of NP (hydrodynamic radius): results in the aggregation of NP | aggregation of NP (hydrodynamic radius) with added RNA: accelerates the aggregation of NP
